Experimental data taken from publication PMC4336329 (PLoS ONE, 2015).
About 14,000 (4.5%) of roughly 310,000 compounds showed an effect of 50% or more. The effect is printed as a negative number. The list shows a part of the results.

biological target: human ether-à-go-go-related gene (hERG) potassium channel (human, UniProt Q12809); assay: primary screen, population patch clamp on CHO cells stably expressing hERG
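Also: peak tail current of the secondary pulse compared with the same well before compound.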

human ether-à-go-go-related gene (hERG) potassium channel, sequence (Q12809 whole entry, looked up): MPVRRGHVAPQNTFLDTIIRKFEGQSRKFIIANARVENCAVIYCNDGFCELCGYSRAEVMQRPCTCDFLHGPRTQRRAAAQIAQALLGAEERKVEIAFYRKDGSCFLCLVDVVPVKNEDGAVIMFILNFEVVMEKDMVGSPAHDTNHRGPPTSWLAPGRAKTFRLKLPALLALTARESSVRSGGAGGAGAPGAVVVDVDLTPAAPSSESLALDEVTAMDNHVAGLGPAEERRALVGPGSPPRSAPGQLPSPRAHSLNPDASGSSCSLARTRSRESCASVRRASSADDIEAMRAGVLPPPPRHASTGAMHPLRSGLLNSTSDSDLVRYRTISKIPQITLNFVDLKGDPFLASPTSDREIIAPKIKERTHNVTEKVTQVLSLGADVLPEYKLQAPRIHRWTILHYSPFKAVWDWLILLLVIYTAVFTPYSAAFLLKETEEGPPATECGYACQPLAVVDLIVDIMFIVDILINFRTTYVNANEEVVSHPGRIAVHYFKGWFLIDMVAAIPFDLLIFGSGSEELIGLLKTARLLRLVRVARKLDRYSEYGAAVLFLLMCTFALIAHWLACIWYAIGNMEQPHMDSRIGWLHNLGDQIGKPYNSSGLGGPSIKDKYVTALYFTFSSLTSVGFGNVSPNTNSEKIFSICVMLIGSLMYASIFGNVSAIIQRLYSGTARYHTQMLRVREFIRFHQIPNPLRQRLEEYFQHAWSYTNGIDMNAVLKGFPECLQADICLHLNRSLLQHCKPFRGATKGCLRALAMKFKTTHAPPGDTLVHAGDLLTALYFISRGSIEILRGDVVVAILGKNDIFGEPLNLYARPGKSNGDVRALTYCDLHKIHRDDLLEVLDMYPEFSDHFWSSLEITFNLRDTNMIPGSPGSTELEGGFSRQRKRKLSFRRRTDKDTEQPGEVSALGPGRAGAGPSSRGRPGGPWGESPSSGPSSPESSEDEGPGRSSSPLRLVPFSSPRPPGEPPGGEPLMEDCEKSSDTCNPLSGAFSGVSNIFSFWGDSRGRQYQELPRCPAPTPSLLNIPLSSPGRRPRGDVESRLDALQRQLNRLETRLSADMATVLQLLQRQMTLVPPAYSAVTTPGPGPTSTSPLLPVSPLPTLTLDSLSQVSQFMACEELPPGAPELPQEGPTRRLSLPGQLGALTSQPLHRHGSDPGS

SMILES | hERG current change (%, negative = inhibition) at 10uM [%]
COc1ccc(CNc2cc(C)nc3ccc(OC)cc23)cc1 | -72.8
C[C@@H]1O[C@@H]1P(=O)([O-])[O-].[Na+] | 1.81
C=C(C)c1cccc(C(C)(C)NC(=O)Nc2ccc(C(N)=O)cc2)c1 | 3.53
COC(=O)C1=NN(c2ccccc2)C2(S1)SC(C(C)=O)=C(C)N2c1ccccc1 (stereo not shown) | -46.1
CCOC(=O)N1CCC(Nc2c(NCCCN3CCN(CC)CC3)c(=O)c2=O)CC1 | 5.08
O=[N+]([O-])c1cc(-c2cnc3ccccc3n2)ccc1Oc1ccc(Br)cc1 | -8.32
COc1ccc(OC)c(NC(=O)N2CCCC(C)C2)c1 (stereo not shown) | 12.6
CC(C)c1ccc(CN2C(=O)NC3(CCCCCC3)C2=O)cc1 | 10.3
CN(C)CCCNC(=O)c1cc(C(=O)c2c(Cl)cccc2Cl)c[nH]1 | -9.62
CCOc1ccc(C(=O)/C=C/Nc2ccc(S(=O)(=O)Nc3cc(C)nc(C)n3)cc2)cc1 | -11.5
CC(C)(C)NC(=O)NC(=O)CN1CCCCCCC1 | 29.6
COc1c(F)c(F)c(C(=O)Nc2ccccc2N2CCN(C(C)=O)CC2)c(F)c1F | -6.56
C=CCS/C(N)=N\N=C\c1cc(Br)cc([N+](=O)[O-])c1O | 6.65
Cc1ccc(S(=O)(=O)Nc2ccc3c(c2)n(C)c(=O)n3C)cc1 | 15.2
CCOc1cc(S(=O)(=O)NCC2CCCO2)ccc1F (stereo not shown) | 13.8
O=C(NC1CCCc2ccccc21)c1ccc(CNc2c(N3CCOCC3)c(=O)c2=O)cc1 (stereo not shown) | 10.7
O=C(N/N=C/c1cccc2ccccc12)C(=O)N1CCCC1 | 7.68
COc1cccc(-c2ccc(NC(=O)C3CCCN(Cc4cc(C)[nH]n4)C3)cc2)c1 (stereo not shown) | -36.5
Cc1ccc2c(c1)NC(=O)C(N1CCOCC1)(C(F)(F)F)O2 (stereo not shown) | 13
C=CCN1C(=O)C(CC(=O)NCC)SC1=Nc1ccccc1OC (stereo not shown) | 19.5
COc1cccc(-c2cc(C(F)(F)F)n3ncc(C(=O)NCC4CCCO4)c3n2)c1 (stereo not shown) | -15.1
CC1Oc2ccccc2N(Cc2cccc(F)c2)C1=O (stereo not shown) | 7.56

SMILES | hERG current change (%, negative = inhibition) at 10uM [%]
O=C(CSc1nc2cc(Cl)ccc2o1)c1cccs1 | 1.04
COc1ccc(OC)c(C2NC(=S)NC3=C2N2CCC3CC2)c1 (stereo not shown) | 23.3
COc1ccccc1N1CCN(S(=O)(=O)c2cn(C)c(=O)n(C)c2=O)CC1 | 10.8
COc1ccc(C2=NOC(CNC(=O)c3ccccc3Br)C2)c(OC)c1 (stereo not shown) | 5.06
CC(C)CCCn1c(O)c(/C=C2/C=CC=N2)c(=O)[nH]c1=O | 6.88
CN(C(=O)c1cccnc1)c1nnc(-c2cnccn2)s1 | 8.06
CCN1CCN(CC(=O)Nc2cccc(C)c2)C(=O)C1=O | 13.9
C=CCn1c(C)cc(-c2csc(N)n2)c1C.Cl | -3.56
CCN(C(=O)C(C)Cl)c1ccccc1 (stereo not shown) | 24.2
COc1ccccc1OCCn1c(SCC(N)=O)nc2ccccc21 | 8.49
N#Cc1c(N)nc2c(c1N)CC(COc1ccccc1)O2 (stereo not shown) | -6.98
O=C(CSCCS(=O)(=O)c1ccc(Cl)cc1)Nc1ccccc1 | -0.34
O=C(Nc1cccc2nsnc12)c1ccc(F)cc1 | -10.7
Clc1cccc(Cl)c1/C=N/Nc1c(Cl)cncc1Cl | 1.19
O=C(NCCSCc1ccco1)Nc1cc(Cl)cc(Cl)c1 | 7.75
O=C(CSc1ncnc2sc3c(c12)CCC3)NCC1CCCO1 (stereo not shown) | -1.35
COc1cccc(OC)c1-c1nn2c(-c3ccco3)nnc2s1 | -14.5
CN(CC(=O)Nc1ccccc1Br)C(=O)c1cccc([N+](=O)[O-])c1 | -7.61
COc1ccc(CCN2CC(C(=O)NCc3ccccc3)CCC2=O)cc1 (stereo not shown) | -8.79
COc1ccc(NC(=O)c2cc(S(=O)(=O)N3CCCC3)c[nH]2)cc1 | 17.9
CC(C)(C)NC(=O)CSc1nnc(CN2CCCCCC2=O)n1-c1ccccn1 | 15.8
Cc1ccc(C(=O)NCC(=O)OCC(=O)NC(C)c2ccccc2)s1 (stereo not shown) | 2.48

SMILES | hERG current change (%, negative = inhibition) at 10uM [%]
COCCCn1c(SCC(=O)NCc2ccco2)nc2sc3c(c2c1=O)CCC3 | -37.3
O=C(NNC(=O)c1cccnc1)NC1CCCCC1 | 29.3
COc1ccc(N=C2NC(=O)C(CO)(CO)S2)cc1 | 15.7
N#Cc1c(N)[nH]c(=S)c(C#N)c1-c1ccccc1 | 14.9
NC(=O)c1ccc2c(=O)n3c(-c4cc(Cl)c(N)c(Cl)c4)csc3nc2c1 | -17.5
O=C(C1CCC1)N1CCc2cc(S(=O)(=O)N3CCc4ccccc4C3)ccc21 | 4.48
O=C(O)c1ccc(NC(=S)Nc2ccccc2)cc1 | 8.33
CC1C2NC(=O)N(Cc3ccccc3)C1(C)Oc1ccccc12 (stereo not shown) | -7.42
Cc1ccc(S(=O)(=O)NNC(=O)Nc2ccccc2F)c(C)c1 | -7.65
Nc1ccc2nc(SCC(=O)N3CCN(c4ccccc4)CC3)sc2c1 | -13.7
O=C(NC1CCCC1)C(c1ccsc1)N(CCc1ccccc1)C(=O)Cc1cccs1 (stereo not shown) | 14.4
O=[N+]([O-])c1ccc2nc(CCCc3nc4ccc([N+](=O)[O-])cc4[nH]3)[nH]c2c1 | -43.1
CCC(C)N(C(=O)c1csnn1)C(C(=O)NC1CCCC1)c1ccc(F)cc1 (stereo not shown) | 0.39
O=C(COC(=O)/C=C/c1cccc([N+](=O)[O-])c1)NCC1CCCO1 (stereo not shown) | -4.51
Cc1ccccc1N=Nc1c(O)[nH]c2ccccc12 | 15.2
O=C(COC(=O)Cn1cnc2ccccc21)NCCc1ccccc1 | -0.336
O=C1C2CCCN2C(=O)N1CCCN1CCN(c2ccc([N+](=O)[O-])cc2)CC1 (stereo not shown) | -68.3
O=C(N/N=C\c1cccc(Cl)c1)c1ccc(Cn2cc(Br)c([N+](=O)[O-])n2)o1 | -47.9
O=C(Nc1cccc(C(=O)N2CCCc3ccccc32)c1)c1ccccc1 | -25
Cc1ccccc1C(=O)NC1CCN(CC(=O)Nc2ccccc2)CC1 | -6.23
COc1ccc(NC(=O)CN(C)CC(=O)c2[nH]c(C)c(C(C)=O)c2C)cc1 | -18.3
CCOC(=O)c1cc(C)sc1/N=C/C1C(=O)CCCC1=O | -14

SMILES | hERG current change (%, negative = inhibition) at 10uM [%]
COc1ccc(NC(=O)c2ccccc2NC(=O)c2ccccc2C(=O)O)c(OC)c1 | 26.9
COC(=O)c1ccc(C(=O)OC)c(NC(=O)C(C)C)c1 | 11.7
CN(c1ccc(F)cc1)S(=O)(=O)c1ccc(Cl)c(C(=O)Nc2ccc3c(c2)CCC3)c1 | 10.9
CCC(C)NC(=O)c1cn(CC)c2ccc(S(=O)(=O)N(C)C)cc2c1=O (stereo not shown) | 1.45
COc1ccc(CNC(=O)c2cc(=O)c3ccc(C)c(C)c3o2)cc1 | 19.5
COc1ccc(C(=O)NCc2nnc(SCC(=O)c3ccccc3)o2)cc1 | 13.8
Cc1ccc(C)c(S(=O)(=O)N2CCCC2CNC(=O)c2ccc([N+](=O)[O-])cc2)c1 (stereo not shown) | -81.8
CCOC(=O)c1ccc(N=C2SC(C(=O)NC)CC(=O)N2Cc2ccc(F)cc2)cc1 (stereo not shown) | 5.3
COc1ccccc1N1CCN(C(=O)c2sc3ncnc(N4CCN(c5ccccn5)CC4)c3c2C)CC1 | -18.8
CS(=O)(=O)c1ccccc1C(=O)Nc1cccc(-c2nc3ccccc3o2)c1 | 8.25
CCN(CC)CCOC(=O)c1ccc(N/C=C(/C#N)c2nc(-c3cc4ccccc4oc3=O)cs2)cc1 | 6.62
Cc1ccc(S(=O)(=O)/N=C(\N)Nc2nc(C)c3ccccc3n2)cc1 | -4.72
COc1ccc(CN2CCNC(=O)C2CC(=O)NCc2csc(C)n2)c(F)c1 (stereo not shown) | 24.6
CC1CN(C2CCN(S(=O)(=O)c3ccc4ccccc4c3)CC2)CC(C)O1 (stereo not shown) | -22.5
O=C(CSc1nncn1-c1cccnc1)N1CCOCC1 | 6.98
COc1cc(/C=C2/OC(=O)c3cc([N+](=O)[O-])ccc32)cc(OC)c1OC | 11.3
O=C(Nc1cccc(-c2cn3ccccc3n2)c1)c1ccccc1 | -17.6
Cc1ccc(C)c(NS(=O)(=O)c2ccc(-c3coc(C)n3)cc2)c1 | 22.1
CC1CCC(NC(=O)CN(C)S(=O)(=O)c2ccc3c(c2)CCC(=O)N3)CC1 (stereo not shown) | -7.85
C#CCSc1nccc(-c2nn(-c3ccc(C)cc3)ccc2=O)n1 | -5.54
CCOC(=O)c1c(-c2cccc3ccccc23)csc1NC(=O)C1C2CCC(O2)C1C(=O)O (stereo not shown) | 4.93
COc1ccccc1NC(=O)N1CCCC1C(=O)NCc1ccc2c(c1)OCO2 (stereo not shown) | 11.1
